The record followed here is publication PMC7819943, “Rice protein-binding microarrays: a tool to detect cis-acting elements near promoter regions in rice”.

Some of the results follow.

The target of this experiment is T1, OsWOX13 (Oryza sativa, UniProt Q5QMM3 1-267).
T1 sequence: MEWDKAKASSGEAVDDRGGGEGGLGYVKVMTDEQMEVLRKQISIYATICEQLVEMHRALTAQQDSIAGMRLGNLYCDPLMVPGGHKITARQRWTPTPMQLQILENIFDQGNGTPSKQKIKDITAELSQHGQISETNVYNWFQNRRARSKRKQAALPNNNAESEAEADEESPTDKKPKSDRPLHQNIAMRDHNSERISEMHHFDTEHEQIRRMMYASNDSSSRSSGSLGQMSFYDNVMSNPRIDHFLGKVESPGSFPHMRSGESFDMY
Put plainly: protein-binding microarray (RPBM); PBS, 2% BSA, 51.3 ng/ul salmon testes DNA, 50 uM zinc acetate, 200 nM TF, 25 C, 1 h; high values mean tight binding. As to conditions: protein: recombinant; tags: N-terminal polyhistidine and DsRed monomer fusion (pET32a); label: CyDye5-dUTP incorporated in the synthesized complementary strand; 3' TTTTT single-stranded linker to array surface; dsDNA, one strand shown. The essentials:
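Using Ni–NTA, transcription factors fused N-terminally to polyhistidine and DsRed were purified after expression in E. coli BL21-CodonPlus. These were incubated at 200 nM with a blocked, double-stranded custom Agilent array for 1 h at 25 °C in a buffer containing 50 µM zinc acetate, and the array was washed. The binding signal is per-feature fluorescence intensity (arbitrary units) on an Axon 4000B scanner.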
With “ATAGATAGATAGATAGATAGATGTAGTCATCATCACACATCGGAGTCACCTAGTGCAG”, the binding signal was 49300 fluorescence intensity (a.u.).

Consider “TCACCTTGATAAATTTTATAAAATTACATATATTTTGATCCGGAGTCACCTAGTGCAG”, for which the binding signal is 8560 fluorescence intensity (a.u.).

“TAGATTTAATTTTAATCCTAGCTTCACCACACCATGATCCCGGAGTCACCTAGTGCAG”: the binding signal was 12200 fluorescence intensity (a.u.).

As to “GTGCCAATCAGAGTTGGTGGCGACAACGAGATGGAAGCAACGGAGTCACCTAGTGCAG”, the binding signal is 5330 fluorescence intensity (a.u.).

As to “GTAAATTTTAGCCGGGATTAATACGTGTTTGTGCTTGGCGCGGAGTCACCTAGTGCAG”, the binding signal was 9040 fluorescence intensity (a.u.).

For “TATAGTTAATTTAATTGTTGTGCTAATTGTTTGCGTGGTCCGGAGTCACCTAGTGCAG”, the binding signal is 41200 fluorescence intensity (a.u.).

As to “TCGTGATTTATATAGCGATACATCCCACCGTGTAAATAAGCGGAGTCACCTAGTGCAG”, the binding signal was 37500 fluorescence intensity (a.u.).

For “AGACTATTTACAAAACTAATTACATAAATGAAAGCTAACTCGGAGTCACCTAGTGCAG”, the binding signal is 5260 fluorescence intensity (a.u.).

Regarding “TCCTAATTCCCGAAACTAAAATAACACAATGTATCATATGCGGAGTCACCTAGTGCAG”, the binding signal was 5500 fluorescence intensity (a.u.).

Turning to “ATCCATCATAATTATCATTAAAATTTCTAATCAATACTTACGGAGTCACCTAGTGCAG”, the binding signal is 9780 fluorescence intensity (a.u.).

On to “AACGTATTTTATAATTATTTTATTTATTAGTGCTTAAACACGGAGTCACCTAGTGCAG”, for which the binding signal is 3730 fluorescence intensity (a.u.).

For “CCAAAGGATTGAGAATGGATTCACTTACTTGGCTACGAGTCGGAGTCACCTAGTGCAG”, the binding signal was 3160 fluorescence intensity (a.u.).

For the sequence “ATTGATTGGAGCCGAGAATGAGAAAGGATGACACGTTCGTCGGAGTCACCTAGTGCAG”, the binding signal is 35500 fluorescence intensity (a.u.).

Turning to “GCAGAACACGTACTGTTGATTGATTCAGGCGAAGAGCCAACGGAGTCACCTAGTGCAG”, the binding signal was 27000 fluorescence intensity (a.u.).

With “TAATGTGATAGACTGATAGTGCTACTCATACTCCCCTGTTCGGAGTCACCTAGTGCAG”, the binding signal is 27100 fluorescence intensity (a.u.).

For “GTTAAATTTGTAGTTTTGTGATGATTTGATCAAAGTATATCGGAGTCACCTAGTGCAG”, the binding signal was 22700 fluorescence intensity (a.u.).

“AATAAATAAACAAATACGATACTTCTTAAGTACAAGCGTGCGGAGTCACCTAGTGCAG”: the binding signal was 3670 fluorescence intensity (a.u.).

On to “ATATATATATATATATATATATATATATATAATCTCTCCTCGGAGTCACCTAGTGCAG”, for which the binding signal is 18800 fluorescence intensity (a.u.).

Turning to “CCTTAACAGCCACCTGCACGGCCCACGGTCGTCGTCGCCACGGAGTCACCTAGTGCAG”, the binding signal is 4390 fluorescence intensity (a.u.).

For “GAATCTTGAAATTGAGCTGATTAATTTTCTTCTTGTTGAGCGGAGTCACCTAGTGCAG”, the binding signal was 11800 fluorescence intensity (a.u.).

Take “CATTTTGATTACTATGGTATAGGTGCCAACCGGTAATACCCGGAGTCACCTAGTGCAG”: the binding signal was 7900 fluorescence intensity (a.u.).

Take “TTAATTGGGTTTTACTTATTATAAACTTGAATAATGGATTCGGAGTCACCTAGTGCAG”: the binding signal is 21300 fluorescence intensity (a.u.).

Consider “TGTACATCAATGGATTGGCATTAATTAGCATTTGGTTGGACGGAGTCACCTAGTGCAG”, for which the binding signal is 28200 fluorescence intensity (a.u.).

With “CGTGTGATCCCCAATCACGCCCTCCTCAGGCGGACACGGTCGGAGTCACCTAGTGCAG”, the binding signal was 5140 fluorescence intensity (a.u.).

Turning to “ATCGAACTGTGAATAATAATTGATACCTGTCATATCCATCCGGAGTCACCTAGTGCAG”, the binding signal is 8760 fluorescence intensity (a.u.).

For “TAAATTTTGATAATGTTAAAATTGTAGCAACAAACTAAACCGGAGTCACCTAGTGCAG”, the binding signal is 3450 fluorescence intensity (a.u.).

For the sequence “CCCCATTAAACGGAAAATTAGGTGCCTGATGAATTTACATCGGAGTCACCTAGTGCAG”, the binding signal is 10400 fluorescence intensity (a.u.).

Take “TCTTAATTAGTAATATAACAGCCATTGTACATATAACCGGCGGAGTCACCTAGTGCAG”: the binding signal was 32500 fluorescence intensity (a.u.).

As for “AAAATTTTGCCCATCAACGAGAACTCAATAACGGGGCACTCGGAGTCACCTAGTGCAG”, the binding signal was 5120 fluorescence intensity (a.u.).

For “TCAATGAATTGAAATGAAATTTAAGTATGCTTTGCTGCTGCGGAGTCACCTAGTGCAG”, the binding signal is 11200 fluorescence intensity (a.u.).

Regarding “GACGACGTTAATTAGTAATTACTCAACCATTACCATGTGCCGGAGTCACCTAGTGCAG”, the binding signal was 37300 fluorescence intensity (a.u.).

As for “ACAACATATAAATCAGTCTAAACTTATTTCGCACGTCAAGCGGAGTCACCTAGTGCAG”, the binding signal was 4200 fluorescence intensity (a.u.).

On to “GTGGACTGCAAATTAATTGTGTATAAGCAAGTCAACCGAGCGGAGTCACCTAGTGCAG”, for which the binding signal is 23800 fluorescence intensity (a.u.).

On to “AAGAAGATAAATAATCAATCAATGTCCAATAATCAATAGCCGGAGTCACCTAGTGCAG”, for which the binding signal is 28700 fluorescence intensity (a.u.).

As for “TGATGATTACATATTTTCCTCGGATTTTGATTCATCTGAACGGAGTCACCTAGTGCAG”, the binding signal was 29000 fluorescence intensity (a.u.).

For “AAATTTATAATTTTACAATAAATTTGATATTAAATTTGTACGGAGTCACCTAGTGCAG”, the binding signal was 12300 fluorescence intensity (a.u.).

In the case of “TAATAATGTAAACTAATAACAAAACAAATTATAGGTTCCGCGGAGTCACCTAGTGCAG”, the binding signal was 4540 fluorescence intensity (a.u.).

For “CCGTTGGATTGGAATCGGAGGGCCTACAATGACTGAGTGCCGGAGTCACCTAGTGCAG”, the binding signal was 5860 fluorescence intensity (a.u.).

As for “TGCATTGATGTCTGTGATTTACAAGTATGGAGATGAAAGGCGGAGTCACCTAGTGCAG”, the binding signal is 10900 fluorescence intensity (a.u.).

Consider “ACTGATGAAGTTGTTTAGTTTATTATCATAGTTTACCACGCGGAGTCACCTAGTGCAG”, for which the binding signal is 5400 fluorescence intensity (a.u.).

For “CTTGTTTGACTGACATATGGGTTCTGCATGTTTTGTTTTACGGAGTCACCTAGTGCAG”, the binding signal is 9030 fluorescence intensity (a.u.).

As to “CCAGATTATAATAATCCTAAGCTGAATCAAACATGGCCTACGGAGTCACCTAGTGCAG”, the binding signal was 9510 fluorescence intensity (a.u.).

As to “TTCGTAGAAATTCCGCTATCAAAGCTCGGCCAACACATAGCGGAGTCACCTAGTGCAG”, the binding signal is 18000 fluorescence intensity (a.u.).

As to “CTATCAATTATGATTACATTAAGTAAATGTAGATAAGGCCCGGAGTCACCTAGTGCAG”, the binding signal is 45200 fluorescence intensity (a.u.).

Regarding “GTCTAAATATTTGATGTGATAGGATGTAAAATTTTACCAACGGAGTCACCTAGTGCAG”, the binding signal is 8970 fluorescence intensity (a.u.).

As to “TGTAACTAATGAATTGATTAATGAGGAGAGGTGCTGATTGCGGAGTCACCTAGTGCAG”, the binding signal was 38500 fluorescence intensity (a.u.).

As to “GGGATTGGTTGAGAAAATAAAACAGATATATAAGTTTATCCGGAGTCACCTAGTGCAG”, the binding signal was 3160 fluorescence intensity (a.u.).

For “TATATATAATGATGATTTAATGAAACTAATTTGATATTGTCGGAGTCACCTAGTGCAG”, the binding signal was 20500 fluorescence intensity (a.u.).

For the sequence “CTATGACGTTTGTTTCTCGCTGATTATCTGCCATACAAATCGGAGTCACCTAGTGCAG”, the binding signal was 3880 fluorescence intensity (a.u.).

Regarding “TATTAAATTAGCTATAGATGTTTTGGAGTCAGTAGTTGGCCGGAGTCACCTAGTGCAG”, the binding signal is 20700 fluorescence intensity (a.u.).

Take “GCTAATTAATATGTTTTCACAAGTATTCTCTAACAAAGACCGGAGTCACCTAGTGCAG”: the binding signal was 24900 fluorescence intensity (a.u.).

For “ATGATTAATCATAAGTGCTACAGTAACCCACATGTGCTAACGGAGTCACCTAGTGCAG”, the binding signal is 20500 fluorescence intensity (a.u.).

As to “GATGTGACTGAAAAGTTGTGTGTGTATGACAGGTACATGTCGGAGTCACCTAGTGCAG”, the binding signal is 8110 fluorescence intensity (a.u.).

As for “ATCTAGATGATTTTACTATTCTACCTTATTTTGTTCACAACGGAGTCACCTAGTGCAG”, the binding signal is 4640 fluorescence intensity (a.u.).
